# Measured values: ChEMBL document CHEMBL5308541, “MAIP: An Open-Source Tool to Enrich High-Throughput Screening Output and Identify Novel, Druglike Molecules with Antimalarial Activity” (ACS Med Chem Lett, 2023)
# Screen size: about 150,000 compounds; about 540 (0.36%) showed an effect of 50% or more. The list shows a part of the results.
# System: Plasmodium falciparum
# Experiment: Primary screen in NF54 nanoGlo assay, in single point, at 2uM, 72h; a lower Z score goes with more inhibition
# Format: functional, Erythrocyte
# Settings: timepoint 72 hour
Structure (SMILES),% Inhibition,Z score
O=C(Cc1ccc(N2CCNC2=O)cc1)N1CC[C@H](c2ccccc2F)C1,-18%,3.1
O=C(NC1CCN(c2cc(NCC3CC3)ncn2)CC1)c1ccoc1,7%,-1.2
CNC(=O)CCCNC(=O)N[C@@H](CCOC)COC,-7%,1.26
Cc1cc(C(F)(F)F)nc(CCNc2nc(N)nc3c2CCNC3)n1,-7%,1.08
COc1ccc2c(c1)c(CN1CCC[C@H](N(Cc3cccnc3)C(=O)C3CCC3)C1)cn2C,0%,0.05
COCCN1CC[C@H](CN(C)Cc2ccccc2OCCCCN2CCCCC2)C1,6%,-1.39
Cc1sc2nc(-c3ccccn3)nc(NCCc3nccn3C)c2c1-c1ccccc1,71%,-14.01
CNc1nc(N[C@H]2C[C@@H](c3cc(N4CCOCC4)ncn3)C2)ncc1F,-9%,1.61
CC(C)[C@H](NC(=O)OCc1ccccc1)C(=O)N1CC=C(c2c[nH]c3cc(F)ccc23)CC1,0%,-0.03
CC(O)CC1CCCN1C(=O)CC1(O)CCCCC1 (centres undefined),-3%,0.48
O=C(CCCc1c[nH]c2ccccc12)N[C@H]1CCCN(Cc2cccc(O)c2)C1,-9%,1.51
CN(Cc1cn[nH]c1-c1ccccc1)C[C@]1(O)CCCN2CCCC[C@@H]21,-8%,1.38
Cc1cc(Br)c2c(c1)C(c1c[nH]c3ccccc13)(c1c[nH]c3ccccc13)C(=O)N2C,-4%,0.72
c1csc(-c2ccnc(N[C@H]3CO[C@H]4[C@@H]3OC[C@@H]4NCC3CCCCC3)n2)c1,-8%,1.22
N#Cc1ccccc1Oc1ccc(NC(=O)[C@H](Cc2c[nH]c3ccccc23)NC(N)=O)cc1,-4%,0.87
O[C@@H](CNc1ncc(F)c(-c2ccsc2)n1)COCC1CC1,-8%,1.17
CNc1nc(NCC[C@H]2CCCCN2C(C)C)ncc1F,-2%,0.4
Oc1ccc(Br)c(CNC2CCN(C3CC3)CC2)c1,12%,-2.22
Cc1nc(N2CCN(C)CC2)cc(N2CCN(S(=O)(=O)c3ccccc3C(F)(F)F)CC2)n1,42%,-7.34
Cc1cncc(-c2ccc(F)c(CN3CCNCC3)c2)c1,-7%,1.44
CCCN(CCC1=CCCCC1)C(=O)[C@H]1CCc2nn(C)c(=O)n2C1,-8%,1.59
CCCc1cc(NC2CCCC2N(C)C)nc(C)n1 (centres undefined),5%,-0.9
c1cc2cn[nH]c2cc1CNC1(c2noc(C3CCCC3)n2)CCCCCC1,-7%,1.21
COc1ccc(Cn2cc(-c3n[nH]c4ncccc34)cn2)cc1,-6%,0.89
Cn1nc(NC(=O)Cn2cccnc2=O)c2c(N3CCOCC3)cccc21,-11%,2.45
CN(Cc1cc(-c2ccccc2)no1)C(=O)CN1CC2CCC(CC1=O)N2 (centres undefined),6%,-1.35

Structure (SMILES),% Inhibition,Z score
Cc1ccc2[nH]cc(-c3ccc(Oc4ccc(N)cn4)cc3)c2c1,2%,-0.47
C[C@H](Oc1cccc(-c2ccnc3[nH]ccc23)c1)C(N)=O,17%,-3.74
Cc1nc2c(c(N(C)C)n1)CCN(C(=O)c1c[nH]nc1-n1cnnn1)C2,-6%,0.87
O=C(NC1CCCC1n1ccnc1)c1cccc(Nc2cnccn2)c1 (centres undefined),-1%,0.27
Nc1ccc(-c2cc(N)nc(N3CCOCC3)n2)cn1,1%,-0.21
CC(c1ccccc1)N1CCC(NCC2CN3CCCC3CO2)C1 (centres undefined),6%,-1.1
CS(=O)(=O)N1CCC(CNc2ccc(-c3ccncc3)cn2)CC1,-6%,1
CN(C)c1nccc(N2C[C@@H](F)C[C@H]2CNCc2cnc3cnccn23)n1,0%,0.07
OCCn1ccc(Nc2cc(C(F)(F)F)nc(-c3cccnc3)n2)n1,-6%,1.36
COC1CCOCC1NC(=O)c1cc2cnccc2[nH]1 (centres undefined),-4%,0.63
Cc1cc2cc(C(=O)N3CCC(Cc4noc(C5CC5)n4)CC3)ccc2o1,16%,-2.87
Cc1cc(C(=O)N2C[C@H](O)[C@@H](N(C)C)C2)nn1-c1ccc(F)cc1,-10%,2.03
CCc1nnc(-c2c(C)[nH]c(-c3ccccc3)c2-c2c(-c3ccccc3)noc2CC)[nH]1,4%,-0.66
CN(C)c1ccnc(NCCC2CCN(C3CCCC3)CC2)n1,-6%,1.02
c1cc(CN2CCN(c3cc(N4CCN(Cc5ccncc5)CC4)ncn3)CC2)ccn1,29%,-5.7
COc1cc(OC)c2nc(N3CCCO[C@@H](CN4CCCCC4)C3)cc(C)c2c1,-1%,0.27
FC(F)(F)CN1CCC[C@@H]1CNc1ncnc2[nH]ncc12,-4%,0.74
C[C@H]1CCCCN1C(=O)CN1CCN(c2ccc(-c3ccc4c(c3)OCCCO4)nn2)CC1,-14%,2.46
C[C@@H]1CN(C(=O)c2cnc3[nH]ccc3c2)C[C@H](C)N1CC(F)(F)F,-12%,2.03
FC(F)(F)CN1CC[C@H](Nc2nnc(-c3cccc(Cl)c3)o2)C1,6%,-1.21
Cc1c[nH]c(CN(C)C(=O)NCC2CCN(C3CCN(C)CC3)CC2)n1,-3%,0.39
c1ccc2[nH]c(-c3cnn4ccccc34)nc2c1,0%,0.02
Cc1cc(N2CCCN(CCC(=O)Nc3cccnc3)CC2)ccn1,-13%,2.28
Cc1[nH]nc2cc(NC(=O)[C@H]3CCN(C4CCCCC4)C3)ccc12,7%,-1.11
O[C@@H](CNc1ncnc2cnccc12)c1ccc(-c2ccsc2)s1,5%,-0.8
CC(=O)Nc1ccc(CCNCc2cccc(O)c2)cc1,-1%,0.15
